# Test results from the supplement of paper PMC12217912.
# Some of the results follow. Sequences were assembled here from the parent chain. Values near 0.05 are background.
# B1: TEV protease; numbered along this chain (parent)
# chain: MGESLFKGPRDYNPISSSICHLTNESDGHTTSLYGIGFGPFIITNKHLFRRNNGTLVVQSLHGVFKVKDTTTLQQHLVDGRDMIIIRMPKDFPPFPQKLKFREPQREERICLVTTNFQTKSMSSMVSDTSCTFPSGDGIFWKHWIQTKDGQCGSPLVSTRDGFIVGIHSASNFTNTNNYFTSVPKNFMELLTNQEAQQWVSGWRLNADSVLWGGHKVFMVKPEEPFQPVKEATQL
# Variants of: B1
# Test: raw area under fraction-flipped curve 0-4 h after induction (AUC4h, not background-subtracted), DNA-recorder readout of cleavage of the substrate (dimensionless); higher = more cleavage of the substrate by the protease variant
# Conditions: temperature: 34 °C; time window: 0-4 h after rhamnose induction
# 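Also: Bxb1 expression induced with 0.2% (w/v) L-rhamnose at OD600 near 0.5, cultures sampled hourly, flipped fraction per protease–substrate barcode pair counted by paired-end Illumina sequencing.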
Variant,area with substrate HNLYFQS,area with substrate INLYFQS,area with substrate KNLYFQS,area with substrate NNLYFQS,area with substrate PNLYFQS,area with substrate RNLYFQS,area with substrate TNLYFQS,area with substrate VNLYFQS,area with substrate WNLYFQS,area with substrate LNLYFQS
MGESLFKGPRDYNPISSSICHLTNESDGHTTSLYGIGFGPFIITNKHLFRRNNGTLVVQSLHGVFKVKDTTTLQQHLVDGRDMIIIRMPKDFPPFPQKLKFREPQREERICLVTTNFQTKSMSSMVSDTSCTFPSGDGIFWKHWIQTKDGQCGSPLVSTRDGFIVGIHSASNFTNTNNYFTSVPKNFMELLTNQEAQQWVSGWRLNADSVLWTGHKVFMVKPEEPFQPVKEATQL [G213T],0.0605,0.0645,0.0595,0.063,0.0604,0.0594,0.0483,0.062,0.0637,–
MGESLFKGPRDYNPISSSICHLTNESDGHTTSLYGIGFGPFIITNKHLFRRNNGTLVVQSLHGVFKVKDTTTLQQHLVDGRDMIIIRMPKDFPPFPQKLKFREPQREERICLVTTNFQTKSMSSMVSDTSCTFPSGDGIFWKHWIQTKDGQCGSPLVSTRDGFIVGIHSASNFTNTNNYFTSVPKNFMELLTNQEAQQWVSGWRLNADSVLWGWHKVFMVKPEEPFQPVKEATQL [G214W],0.066,–,–,–,–,–,–,–,–,0.0607
MGESLFKGPRDYNPISSSICHLTNESDGHTTSLYGIGFGPFIITNKHLFRRNNGTLVVQSLHGVFKVKDTTTLQQHLVDGRDMIIIRMPKDFPPFPQKLKFREPQREERICLVTTNFQTKSMSSMVSDTSCTFPSGDGIFWKHWIQTKDGQCGSPLVSTRDGFIVGIHSASNFTNTNNYFTSVPKNFMELLTNQEAQQWVSGWRLNADSVLWGGKKVFMVKPEEPFQPVKEATQL [H215K],0.0555,0.0582,0.0627,–,–,–,0.0712,–,0.0553,0.0625
MGESLFKGPRDYNPISSSICHLTNESDGHTTSLYGIGFGPFIITNKHLFRRNNGTLVVQSLHGVFKVKDTTTLQQHLVDGRDMIIIRMPKDFPPFPQKLKFREPQREERICLVTTNFQTKSMSSMVSDTSCTFPSGDGIFWKHWIQTKDGQCGSPLVSTRDGFIVGIHSASNFTNTNNYFTSVPKNFMELLTNQEAQQWVSGWRLNADSVLWGGHKVFMVKPEEPFQRVKEATQL [P228R],0.0709,–,–,–,0.0699,–,0.0429,0.0721,0.0532,0.0849
MGESLFKGPRDYNPISSSICHLTNESDGHTTSLYGIGFGPFIITNKHLFRRNNGTLVVQSLHGVFKVKDTTTLQQHLVDGRDMIIIRMPKDFPPFPQKLKFREPQREERICLVTTNFQTKSMSSMVSDTSCTFPSGDGIFWKHWIQTKDGQCGSPLVSTRDGFIVGIHSASNFTNTNNYFTSVPKNFMELLTNQEAQQWVSGWRLNADSVLWGGHKVFMVKPEEPFQSVKEATQL [P228S],0.0695,0.071,–,–,–,–,–,–,–,0.0689
MGESLFKGPRDYNPISSSICHLTNESDGHTTSLYGIGFGPFIITNKHLFRRNNGTLVVQSLHGVFKVKDTTTLQQHLVDGRDMIIIRMPKDFPPFPQKLKFREPQREERICLVTTNFQTKSMSSMVSDTSCTFPSGDGIFWKHWIQTKDGQCGSPLVSTRDGFIVGIHSASNFTNTNNYFTSVPKNFMELLTNQEAQQWVSGWRLNADSVLWGGHKVFMVKPEEPFQYVKEATQL [P228Y],0.0614,0.0603,0.0655,–,–,–,–,–,0.0962,0.0556
MGESLFKGPRDYNPISSSICHLTNESDGHTTSLYGIGFGPFIITNKHLFRRNNGTLVVQSLHGVFKVKDTTTLQQHLVDGRDMIIIRMPKDFPPFPQKLKFREPQREERICLVTTNFQTKSMSSMVSDTSCTFPSGDGIFWKHWIQTKDGQCGSPLVSTRDGFIVGIHSASNFTNTNNYFTSVPKNFMELLTNQEAQQWVSGWRLNADSVLWGGHKVFMVKPEEPFQPRKEATQL [V229R],0.0966,–,–,0.0576,0.0674,0.053,0.0655,0.062,–,0.0713
MGESLFKGPRDYNPISSSICHLTNESDGHTTSLYGIGFGPFIITNKHLFRRNNGTLVVQSLHGVFKVKDTTTLQQHLVDGRDMIIIRMPKDFPPFPQKLKFREPQREERICLVTTNFQTKSMSSMVSDTSCTFPSGDGIFWKHWIQTKDGQCGSPLVSTRDGFIVGIHSASNFTNTNNYFTSVPKNFMELLTNQEAQQWVSGWRLNADSVLWGGHKVFMVKPEEPFQPVKEATQC [L235C],0.0649,0.0672,–,0.0536,0.0643,–,–,0.0668,–,–

# Same assay, conditions: temperature: 34 °C; time window: 0-4 h after rhamnose induction
Variant,area with substrate MNLYFQS,area with substrate SNLYFQS,area with substrate YNLYFQS,area with substrate QNLYFQS
MGESLFKGPRDYNPISSSICHLTNESDGHTTSLYGIGFGPFIITNKHLFRRNNGTLVVQSLHGVFKVKDTTTLQQHLVDGRDMIIIRMPKDFPPFPQKLKFREPQREERICLVTTNFQTKSMSSMVSDTSCTFPSGDGIFWKHWIQTKDGQCGSPLVSTRDGFIVGIHSASNFTNTNNYFTSVPKNFMELLTNQEAQQWVSGWRLNADSVLWGWHKVFMVKPEEPFQPVKEATQL [G214W],0.0425,–,–,–
MGESLFKGPRDYNPISSSICHLTNESDGHTTSLYGIGFGPFIITNKHLFRRNNGTLVVQSLHGVFKVKDTTTLQQHLVDGRDMIIIRMPKDFPPFPQKLKFREPQREERICLVTTNFQTKSMSSMVSDTSCTFPSGDGIFWKHWIQTKDGQCGSPLVSTRDGFIVGIHSASNFTNTNNYFTSVPKNFMELLTNQEAQQWVSGWRLNADSVLWGGKKVFMVKPEEPFQPVKEATQL [H215K],0.039,0.0616,0.0531,–
MGESLFKGPRDYNPISSSICHLTNESDGHTTSLYGIGFGPFIITNKHLFRRNNGTLVVQSLHGVFKVKDTTTLQQHLVDGRDMIIIRMPKDFPPFPQKLKFREPQREERICLVTTNFQTKSMSSMVSDTSCTFPSGDGIFWKHWIQTKDGQCGSPLVSTRDGFIVGIHSASNFTNTNNYFTSVPKNFMELLTNQEAQQWVSGWRLNADSVLWGGHKVFMVKPEEPFQRVKEATQL [P228R],–,–,0.0685,0.0702
MGESLFKGPRDYNPISSSICHLTNESDGHTTSLYGIGFGPFIITNKHLFRRNNGTLVVQSLHGVFKVKDTTTLQQHLVDGRDMIIIRMPKDFPPFPQKLKFREPQREERICLVTTNFQTKSMSSMVSDTSCTFPSGDGIFWKHWIQTKDGQCGSPLVSTRDGFIVGIHSASNFTNTNNYFTSVPKNFMELLTNQEAQQWVSGWRLNADSVLWGGHKVFMVKPEEPFQSVKEATQL [P228S],–,0.0625,–,–
MGESLFKGPRDYNPISSSICHLTNESDGHTTSLYGIGFGPFIITNKHLFRRNNGTLVVQSLHGVFKVKDTTTLQQHLVDGRDMIIIRMPKDFPPFPQKLKFREPQREERICLVTTNFQTKSMSSMVSDTSCTFPSGDGIFWKHWIQTKDGQCGSPLVSTRDGFIVGIHSASNFTNTNNYFTSVPKNFMELLTNQEAQQWVSGWRLNADSVLWGGHKVFMVKPEEPFQYVKEATQL [P228Y],0.0666,0.0572,–,–
MGESLFKGPRDYNPISSSICHLTNESDGHTTSLYGIGFGPFIITNKHLFRRNNGTLVVQSLHGVFKVKDTTTLQQHLVDGRDMIIIRMPKDFPPFPQKLKFREPQREERICLVTTNFQTKSMSSMVSDTSCTFPSGDGIFWKHWIQTKDGQCGSPLVSTRDGFIVGIHSASNFTNTNNYFTSVPKNFMELLTNQEAQQWVSGWRLNADSVLWGGHKVFMVKPEEPFQPRKEATQL [V229R],–,0.0585,–,–
MGESLFKGPRDYNPISSSICHLTNESDGHTTSLYGIGFGPFIITNKHLFRRNNGTLVVQSLHGVFKVKDTTTLQQHLVDGRDMIIIRMPKDFPPFPQKLKFREPQREERICLVTTNFQTKSMSSMVSDTSCTFPSGDGIFWKHWIQTKDGQCGSPLVSTRDGFIVGIHSASNFTNTNNYFTSVPKNFMELLTNQEAQQWVSGWRLNADSVLWGGHKVFMVKPEEPFQPVKEATQC [L235C],–,0.0673,0.0619,–
